The list shows a part of the results.

This test has as its target T1, MBP-FoxP1dN (Mus musculus, UniProt P58462 326-579).
T1 sequence: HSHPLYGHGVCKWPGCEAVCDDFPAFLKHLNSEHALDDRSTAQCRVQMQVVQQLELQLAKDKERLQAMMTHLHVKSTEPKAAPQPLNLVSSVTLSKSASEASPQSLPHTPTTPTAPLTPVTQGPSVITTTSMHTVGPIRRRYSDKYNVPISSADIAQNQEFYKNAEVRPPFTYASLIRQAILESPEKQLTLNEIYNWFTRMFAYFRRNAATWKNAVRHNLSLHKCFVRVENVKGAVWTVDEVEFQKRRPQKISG
The experiment in a line: PD-seq (MBP pull-down with sequencing); 20 mM Tris-HCl pH 7.5, 100 mM NaCl, 1.5 mM MgCl2, 0.4 uM protein, 0.1 uM dsDNA library, 30 min, room temperature, amylose pull-down; high values mean tight binding. The conditions noted are these: protein: recombinant; tags: His6-MBP; chain copies: 2; dsDNA, one strand shown. The method in brief:
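Mouse FoxP3 or FoxP1 fragment lacking the N-terminus, His6-MBP-tagged and expressed in E. coli, was incubated at 0.4 µM with 0.1 µM Klenow-filled degenerate double-stranded DNA library for 30 min at room temperature in Tris pH 7.5 buffer with NaCl and MgCl2. Complexes captured on amylose resin were washed three times and their DNA sequenced on Illumina. Binding is reads-per-million enrichment of pull-down over input, replicates pooled.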
On to “GATGATTGTTCTCCCAGCTGATGAATTATTCAAATCGAGTAAACAAATTTTCCTAATCTTTCTGTTCAAGCGCCATCTAC”, for which the binding signal was 1.11 RPM ratio (pull-down/input).
Regarding “GATGATTGTTCTCCCAGCTGATGAATTCCAGAGTTCGAGTAAACAAATTTTCCTAATCTTTCTGTTCAAGCGCCATCTAC”, the binding signal was 0.778 RPM ratio (pull-down/input).
Then “GATGATTGTTCTCCCAGCTGATGAATTAAACCACTCGAGTAAACAAATTTTCCTAATCTTTCTGTTCAAGCGCCATCTAC”, with 0.958 RPM ratio (pull-down/input).
The value for “GATGATTGTTCTCCCAGCTGATGAATTACTGGAGTCGAGTAAACAAATTTTCCTAATCTTTCTGTTCAAGCGCCATCTAC” was 0.91 RPM ratio (pull-down/input); that for “GATGATTGTTCTCCCAGCTGATGAATTGTGCCTATCGAGTAAACAAATTTTCCTAATCTTTCTGTTCAAGCGCCATCTAC” was 1.09 RPM ratio (pull-down/input); that for “GATGATTGTTCTCCCAGCTGATGAATTCTTTATTTCGAGTAAACAAATTTTCCTAATCTTTCTGTTCAAGCGCCATCTAC” was 1.03 RPM ratio (pull-down/input).
Then “GATGATTGTTCTCCCAGCTGATGAATTAGATAGCTCGAGTAAACAAATTTTCCTAATCTTTCTGTTCAAGCGCCATCTAC”, with 0.854 RPM ratio (pull-down/input); and “GATGATTGTTCTCCCAGCTGATGAATTAAGTGTATCGAGTAAACAAATTTTCCTAATCTTTCTGTTCAAGCGCCATCTAC”, with 1.28 RPM ratio (pull-down/input); and “GATGATTGTTCTCCCAGCTGATGAATTGTTATACTCGAGTAAACAAATTTTCCTAATCTTTCTGTTCAAGCGCCATCTAC”, with 1.31 RPM ratio (pull-down/input).
Consider “GATGATTGTTCTCCCAGCTGATGAATTGATACCATCGAGTAAACAAATTTTCCTAATCTTTCTGTTCAAGCGCCATCTAC”, for which the binding signal was 1.19 RPM ratio (pull-down/input).
As for “GATGATTGTTCTCCCAGCTGATGAATTGCTCATGTCGAGTAAACAAATTTTCCTAATCTTTCTGTTCAAGCGCCATCTAC”, the binding signal is 0.977 RPM ratio (pull-down/input).
Then “GATGATTGTTCTCCCAGCTGATGAATTCAACAACTCGAGTAAACAAATTTTCCTAATCTTTCTGTTCAAGCGCCATCTAC”, with 1.26 RPM ratio (pull-down/input).
On to “GATGATTGTTCTCCCAGCTGATGAATTCTATTATTCGAGTAAACAAATTTTCCTAATCTTTCTGTTCAAGCGCCATCTAC”, for which the binding signal is 1.55 RPM ratio (pull-down/input).
Then “GATGATTGTTCTCCCAGCTGATGAATTTTAGTTTTCGAGTAAACAAATTTTCCTAATCTTTCTGTTCAAGCGCCATCTAC”, with 1.4 RPM ratio (pull-down/input); and “GATGATTGTTCTCCCAGCTGATGAATTCTTATGCTCGAGTAAACAAATTTTCCTAATCTTTCTGTTCAAGCGCCATCTAC”, with 1.08 RPM ratio (pull-down/input).
The value for “GATGATTGTTCTCCCAGCTGATGAATTTGGCGCTTCGAGTAAACAAATTTTCCTAATCTTTCTGTTCAAGCGCCATCTAC” was 0.895 RPM ratio (pull-down/input); that for “GATGATTGTTCTCCCAGCTGATGAATTACAATTTTCGAGTAAACAAATTTTCCTAATCTTTCTGTTCAAGCGCCATCTAC” was 1.36 RPM ratio (pull-down/input).
On to “GATGATTGTTCTCCCAGCTGATGAATTTGAACCCTCGAGTAAACAAATTTTCCTAATCTTTCTGTTCAAGCGCCATCTAC”, for which the binding signal was 0.763 RPM ratio (pull-down/input).
Turning to “GATGATTGTTCTCCCAGCTGATGAATTATAACCCTCGAGTAAACAAATTTTCCTAATCTTTCTGTTCAAGCGCCATCTAC”, the binding signal is 0.997 RPM ratio (pull-down/input).
The value for “GATGATTGTTCTCCCAGCTGATGAATTAAAAAGCTCGAGTAAACAAATTTTCCTAATCTTTCTGTTCAAGCGCCATCTAC” was 0.898 RPM ratio (pull-down/input).
Then “GATGATTGTTCTCCCAGCTGATGAATTTGTACCTTCGAGTAAACAAATTTTCCTAATCTTTCTGTTCAAGCGCCATCTAC”, with 1.13 RPM ratio (pull-down/input).
Then “GATGATTGTTCTCCCAGCTGATGAATTTACTGTGTCGAGTAAACAAATTTTCCTAATCTTTCTGTTCAAGCGCCATCTAC”, with 1.12 RPM ratio (pull-down/input); and “GATGATTGTTCTCCCAGCTGATGAATTGCGATGGTCGAGTAAACAAATTTTCCTAATCTTTCTGTTCAAGCGCCATCTAC”, with 1.06 RPM ratio (pull-down/input).
“GATGATTGTTCTCCCAGCTGATGAATTTAGGTAATCGAGTAAACAAATTTTCCTAATCTTTCTGTTCAAGCGCCATCTAC”: the binding signal is 1.42 RPM ratio (pull-down/input).
For the sequence “GATGATTGTTCTCCCAGCTGATGAATTTAGTCAATCGAGTAAACAAATTTTCCTAATCTTTCTGTTCAAGCGCCATCTAC”, the binding signal is 1.18 RPM ratio (pull-down/input).
In the case of “GATGATTGTTCTCCCAGCTGATGAATTTGGCGACTCGAGTAAACAAATTTTCCTAATCTTTCTGTTCAAGCGCCATCTAC”, the binding signal was 0.836 RPM ratio (pull-down/input).
On to “GATGATTGTTCTCCCAGCTGATGAATTCCGGAATTCGAGTAAACAAATTTTCCTAATCTTTCTGTTCAAGCGCCATCTAC”, for which the binding signal is 0.847 RPM ratio (pull-down/input).
Turning to “GATGATTGTTCTCCCAGCTGATGAATTCCTTACATCGAGTAAACAAATTTTCCTAATCTTTCTGTTCAAGCGCCATCTAC”, the binding signal was 0.965 RPM ratio (pull-down/input).
“GATGATTGTTCTCCCAGCTGATGAATTACTAGCCTCGAGTAAACAAATTTTCCTAATCTTTCTGTTCAAGCGCCATCTAC”: the binding signal was 0.952 RPM ratio (pull-down/input).
The value for “GATGATTGTTCTCCCAGCTGATGAATTGTTATAGTCGAGTAAACAAATTTTCCTAATCTTTCTGTTCAAGCGCCATCTAC” was 1.43 RPM ratio (pull-down/input); that for “GATGATTGTTCTCCCAGCTGATGAATTGTGCGAGTCGAGTAAACAAATTTTCCTAATCTTTCTGTTCAAGCGCCATCTAC” was 0.955 RPM ratio (pull-down/input).
